In all, about 52,000 compounds went through this assay and about 1,700 (3.3%) were called active. Cut-off read from the data, not from the text of the source: active = survival mostly below about 52% (no sharp cut-off); inactive = mostly above about 56%. Some of the results follow.

The subject of this assay is Wild type. In words: S. aureus survival, RN4220 and DeltatarO strains – OD600, teichoic acid synthesis inhibitors, primary screen (AID 463173). The note with it: S. aureus RN4220 wild type/DeltatarO growth, OD600, 18 h, hits give low values, screened at 18.75 µg/mL (by protocol).
With `CC(=O)c1cc(-c2ccccc2)n(CC(=O)NCCc2ccc(C)cc2)c1C`, the survival is inactive: 70%.

Take `CC(C)Oc1ccc(CNC(=O)C2CCN(C(=O)N3CC(C)Oc4ccccc43)CC2)cc1` (stereo not drawn): the survival is inactive: 89%.

For the molecule `CC1(C)Cc2[nH]c(=S)c(C#N)cc2CO1`, the survival is inactive: 67%.

`COc1ccc(OC)c(C2c3c(-c4ccc(Br)cc4)n[nH]c3C(=O)N2c2ccc(Cl)cc2)c1` (stereo not drawn): the survival is inactive: 77%.

For `CCOc1ccc(NC(=O)c2ccc3c(SCC(=O)O)c4c(nc3c2)CCC4)cc1`, the survival was inactive: 80%.

As to `CCOC(=O)c1c(Nc2cccc(C(=O)OC)c2)nnc(-c2ccccc2)c1-c1ccccc1`, the survival is inactive: 19%.

As to `CCOc1ccccc1-c1noc(CSc2nnc(-c3ccccc3)n2-c2cccc(C)c2)n1`, the survival is inactive: 91%.

As for `COc1ccc(Nc2cc(C(=O)NCCCN(C)Cc3ccccc3)c3ccccc3n2)c(OC)c1`, the survival is inactive: 87%.

Take `CCOc1ccc(S(=O)(=O)NCC(c2ccco2)S(=O)(=O)c2ccc(C)cc2)cc1` (stereo not drawn): the survival was inactive: 47%.

On to `CC(C)(Cc1ccc(O)cc1)NC(=O)c1ccccc1`, for which the survival is inactive: 98%.

Take `COc1ccccc1C(=O)Nc1ccc(NC(=O)c2cccs2)cc1`: the survival is inactive: 74%.

With `CCOc1ccccc1NC(=O)COC(=O)c1cn(CC)c2nc(C)ccc2c1=O`, the survival is inactive: 63%.

Take `COc1cc(-c2nc3ccccn3c2Nc2ccccc2C)ccc1O`: the survival is inactive: 65%.

As to `O=C(Nc1cccc(C(F)(F)F)c1)N1CCC(CN2CCCCCC2)CC1`, the survival is inactive: 51%.

For the molecule `COc1ccccc1NC(=O)N1CCN(c2nnc(C)c3c(C)n(-c4ccc(Cl)cc4)nc23)CC1`, the survival was inactive: 83%.

As to `CC(C)N(C(=O)CSc1nnc(-c2cccs2)o1)C(C)C`, the survival is inactive: 116%.

As for `COc1ccc(CC(=O)NCCc2sc(-c3ccc(Cl)cc3)nc2C)cc1OC`, the survival was inactive: 74%.

In the case of `CC1CCc2c(sc(NC(=O)Cn3nnc(-c4ccc(C(F)(F)F)cc4)n3)c2C#N)C1` (stereo not drawn), the survival is inactive: 77%.

On to `COC(=O)CCC(=O)Nc1cccc2ccccc12`, for which the survival was inactive: 101%.

On to `COc1ccccc1CNS(=O)(=O)c1ccc(-c2cc(C(F)(F)F)on2)s1`, for which the survival was inactive: 73%.

As to `OP(Oc1ccccc1)(Oc1ccccc1)=P(O)(Oc1ccccc1)Oc1ccccc1`, the survival was inactive: 103%.

For the molecule `CC1CCN(c2cc3c(cc2F)c(=O)c(S(=O)(=O)c2cccc(Cl)c2)cn3Cc2ccccc2)CC1`, the survival was inactive: 59%.

Turning to `CCn1nc(C(C)C(=O)O)c2ccccc2c1=O` (stereo not drawn), the survival was inactive: 109%.

As to `Cn1nc(-c2ccccc2F)c2cc(C(=O)NCc3ccc(Cl)cc3)sc21`, the survival was inactive: 107%.

Regarding `COc1ccc(C2=C(C(C)=O)Sc3nnc(-c4ccc(C)cc4)n3N2C(C)=O)cc1OC`, the survival was inactive: 76%.

Take `CC(=O)N(CC(C)C)c1nnc(-c2cccnc2)s1`: the survival was inactive: 102%.

As to `COc1ccccc1CNc1ccc(-c2nc(-c3ccccn3)no2)cc1[N+](=O)[O-]`, the survival was inactive: 77%.

In the case of `O=C(NCc1ccc(F)cc1)c1c2c(nc3ccccc13)C(=O)N(C1CCCCC1)C2`, the survival was inactive: 99%.

As to `COc1ccc(OC)c(NC(=O)CCNS(=O)(=O)c2cccc3nsnc23)c1`, the survival was inactive: 66%.

With `Cc1cccc(CCNC(=O)C2CCC(CNS(=O)(=O)c3c(C)cc(C)cc3C)CC2)c1` (stereo not drawn), the survival was inactive: 59%.

Turning to `O=C(Cc1ccc(NC(=O)N2CCCCc3ccccc32)cc1)NCc1ccccc1Br`, the survival is inactive: 78%.

For the molecule `Clc1nc(Cl)nc(OCCCOc2nc(Cl)nc(Cl)n2)n1`, the survival was inactive: 107%.

With `COc1cc(Cl)c(C)cc1NC(=O)Cn1cc(S(=O)(=O)N2CCN(c3ccccc3F)CC2)c2ccccc2c1=O`, the survival is inactive: 68%.

Take `CCc1ccc(NC(=O)CSc2nc3n[nH]c(C)c3c(=N)n2-c2ccc(C)cc2)cc1`: the survival was inactive: 159%.

As to `O=C(CCC1N=C2c3ccccc3N=C(SCC(=O)Nc3ccccc3F)N2C1=O)NCc1ccco1` (stereo not drawn), the survival is inactive: 82%.

In the case of `Nc1ccc2nc(C(F)(F)F)[nH]c2c1`, the survival is inactive: 106%.

With `Cc1cccc(NS(=O)(=O)c2ccc3[nH]c(=O)[nH]c3c2)c1C`, the survival was inactive: 71%.

`Cc1cccc(N2CCN(CC(=O)NCc3cccs3)CC2)c1C`: the survival is inactive: 115%.

On to `N#Cc1ccc(OC(=O)c2cc(-c3ccc(Cl)cc3)on2)cc1`, for which the survival is inactive: 94%.

Turning to `Cc1ccc(NC(=O)CN(C)S(=O)(=O)c2ccc3c(c2)n(C)c(=O)c(=O)n3C)c(C)c1`, the survival was inactive: 77%.

Regarding `CCc1ccc(CN2C(=O)c3ccccc3C2C(=O)NC2CCCCCC2)cc1` (stereo not drawn), the survival was inactive: 88%.

On to `CC(C)(C)C(=O)Nc1ccc(-c2nc3ccccc3s2)cc1`, for which the survival is inactive: 87%.

As to `CCOc1ccc(-c2c(C)nn3c(C)c(C(=O)NCc4cccc(OC)c4)cnc23)cc1OCC`, the survival is inactive: 73%.

For the molecule `CCC1C(=O)NN=C1C` (stereo not drawn), the survival was inactive: 90%.

As for `CONc1nc(NC(C)(C)C)nc(OCC#N)n1`, the survival was inactive: 102%.

Regarding `COc1ccc(-n2ncc(C(=O)N3CCN(Cc4ccccc4)CC3)c2C2CCN(C(=O)OC(C)(C)C)CC2)cc1`, the survival was inactive: 57%.

As for `CCOc1cc(C(=O)N(Cc2nc(-c3ccc(C)cc3)no2)C(C)C)cc(OCC)c1OCC`, the survival was active: 15%.

Take `COc1cc(NC(=O)c2ccco2)c(OC)cc1NC(=O)CCC(=O)NC1CCN(Cc2ccccc2)CC1`: the survival was inactive: 114%.

Turning to `CCc1cnc2c(c1SCc1c(F)cccc1Cl)c(=O)n(C)c(=O)n2C`, the survival is inactive: 72%.

In the case of `CCc1ccccc1Nc1nn2c(=O)c3ccc(C(=O)NC4CCC(C)CC4)cc3nc2s1` (stereo not drawn), the survival is inactive: 80%.

As to `CC(=O)Nc1ccc(S(=O)(=O)NCc2ccc3c(c2)CCN3C(C)=O)cc1`, the survival was inactive: 113%.

As for `Cc1oc(-c2ccccc2)nc1Cn1c(SCc2cccc(C(F)(F)F)c2)nc2cccnc21`, the survival is inactive: 83%.

On to `COc1ccc(CCNC(=O)CCCn2c(=O)c3ccccc3n(CC(=O)Nc3cccc(C)c3)c2=O)cc1OC`, for which the survival was inactive: 92%.

With `CCOC(=O)c1c(NC(=O)c2ccc(S(=O)(=O)N3CCC(C)CC3)cc2)sc2c1CCN(C(C)C)C2`, the survival was inactive: 92%.

With `NC(=O)Cn1nnc(-c2ccccc2N)n1`, the survival is inactive: 104%.

For the molecule `Cc1nn(C(=O)COc2ccc(Cl)cc2)c(C)c1Sc1ccccc1`, the survival is inactive: 88%.

Take `CCOC(=O)c1ccc(NC(=O)CC2C(=O)N(c3ccccc3)C(=O)N2Cc2ccc(C)cc2)cc1` (stereo not drawn): the survival is inactive: 58%.

Take `O=C(NCC1CCCO1)C12CC3CC(CC(C3)C1)C2` (stereo not drawn): the survival is inactive: 103%.

For the molecule `COC(=O)c1ccc(Cl)cc1NC(=O)N1CC2CCCN2c2ccccc21` (stereo not drawn), the survival is inactive: 82%.

For the molecule `COc1ccc(S(=O)(=O)NCc2ccc3c(c2)CCN3C(=O)c2ccccc2)cc1OC`, the survival was inactive: 75%.

Regarding `Cc1cc(Nc2ccccc2F)n2nc(-c3ccccc3)nc2n1`, the survival was inactive: 84%.

On to `CCOc1ccc(Nc2oc(-c3ccc(COc4ccc(OC)cc4)o3)nc2C#N)cc1`, for which the survival is inactive: 83%.

In the case of `CCOC(=O)C1CCN(c2cc3c(cc2NC(=O)c2ccc(Cl)cc2)n(C)c(=O)n3C)CC1`, the survival was inactive: 88%.

With `COc1ccc(NC(=O)CN2C(=O)CCn3nc(-c4cccn4C)cc32)cc1`, the survival is inactive: 55%.

With `Cc1cc(C)c(Nc2nc3ccccc3n3c(C)nnc23)c(C)c1`, the survival was inactive: 99%.

For `COc1ccccc1OCCn1c(NC(=O)c2ccccc2Cl)nc2ccccc21`, the survival was active: -10%.

`Cc1ccc(NC(=O)C(=O)NCC(c2cccnc2)N2CCN(Cc3ccccc3)CC2)cc1C` (stereo not drawn): the survival was inactive: 89%.

In the case of `O=C1CNC(=O)c2c(nc3n2CCC3)N1`, the survival was inactive: 104%.

With `CCN(CC)C(=O)Cn1c(=O)cc(C)c2c(C)nn(-c3cccc(Cl)c3C)c21`, the survival is inactive: 85%.

Regarding `COc1cccc(CNC(=O)C2CCC(CNS(=O)(=O)c3ccc4c(c3)CCCC(=O)N4)CC2)c1` (stereo not drawn), the survival was inactive: 128%.

Regarding `Cc1ccc(NC(=O)CSc2nnc3scc(-c4ccc(Cl)cc4)n23)cc1`, the survival was inactive: 72%.

As for `CCOc1ccc(-c2cc(C(=O)N3CCN(c4cc(Cl)ccc4C)CC3)c3ccccc3n2)cc1`, the survival was inactive: 49%.

For the molecule `CNc1c(NC(=O)c2ccc(OC)c(OC)c2)c(=O)oc2ccccc12`, the survival was inactive: 78%.

Regarding `CCC(=O)n1c2c(c3ccccc31)Nc1ccccc1N2`, the survival was inactive: 105%.

For the molecule `Cc1ccc(Nc2nc3nonc3nc2Nc2cccc(C(F)(F)F)c2)cc1Cl`, the survival is active: 0%.

Consider `CCOC(=O)C1=C(CN2CCN(c3ccc(OC)cc3)CC2)NC(=O)NC1c1ccc(OC)cc1` (stereo not drawn), for which the survival was inactive: 131%.

`CCN(CC)CCCNc1oc(/C=C/c2ccc(OC)c(OC)c2)nc1C#N`: the survival is inactive: 88%.

Regarding `COc1ccc(NC(=O)Cn2cc(S(=O)(=O)N3CCN(c4ccccc4F)CC3)c3ccccc3c2=O)cc1Cl`, the survival is inactive: 100%.

As to `CCOc1ccc2nc(SCC(=O)NCC3CCCO3)c(C#N)cc2c1` (stereo not drawn), the survival was inactive: 101%.

As for `Cc1cc2c(cc1S(=O)(=O)CCC(=O)N1CCC(C)CC1)OCC(=O)N2`, the survival was inactive: 110%.

For `CCc1ccc(C(=O)c2cn(CC(=O)Nc3ccc4c(c3)OCO4)c3ccc(CC)cc3c2=O)cc1`, the survival was inactive: 96%.

As for `Cc1ccc(NC(=O)C(Cc2c[nH]c3ccccc23)NC(=O)OC(C)(C)C)c(C)c1` (stereo not drawn), the survival is inactive: 66%.

As to `Cc1cc(C)cc(NC(=O)NCCc2c(C)nn(C)c2C)c1`, the survival is inactive: 57%.

Take `O=C1c2cccc3c(N4CCOCC4)ccc(c23)C(=O)N1c1ccccc1`: the survival is inactive: 100%.

With `CCOc1cc2sc(N3CCC(C(=O)Nc4ccc(CC)cc4)CC3)nc2cc1Br`, the survival is inactive: 80%.

Consider `CC(=O)N1CCCc2cc(S(=O)(=O)N3CCCC(C(=O)N4CCN(c5cccc(Cl)c5)CC4)C3)ccc21` (stereo not drawn), for which the survival is inactive: 68%.

For the molecule `CCOc1ccc(CNC(=O)c2cccc(NC(=O)N3CCSc4ncccc43)c2)cc1OC`, the survival was inactive: 69%.

Take `CCc1ccc(C(=O)c2cn(CC(=O)Nc3ccc(Cl)cc3)c3cc4c(cc3c2=O)OCO4)cc1`: the survival is inactive: 134%.

Source of the values: PubChem BioAssay AID463173 (ICCB-Longwood Screening Facility, Harvard Medical School, 2010).
